Data published in PubChem BioAssay AID686979 (National Center for Advancing Translational Sciences (NCATS), 2013).
Out of some 420,000 compounds screened, about 50,000 (12%) were called active. The shares of active, inactive and inconclusive entries below differ from those in the screen. The call rests on the fitted dose curve; in most records, active means well fitted inhibition curve with a large enough effect; inconclusive means small, poorly fitted or top-dose-only effect; inactive means flat fitted curve, though single readings scatter. Potencies of inconclusive entries are left out as doubtful fits.

Assay: qHTS for Inhibitors of human tyrosyl-DNA phosphodiesterase 1 (TDP1): qHTS in cells in presence of CPT; further: nearly all actives have a fitted effect of over 55% in size
Details: chicken DT40 Tdp1-/-;hTDP1 cells + 20 nM CPT, ATP luminescence, 48 h; activity change, negative = growth inhibition: at 46.2 µM (top of the series) unless noted
How it was run: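 Chicken DT40 Tdp1-/- cells stably complemented with human TDP1 were seeded at 400 cells/well in medium containing 20 nM camptothecin, exposed to pin-transferred compounds, and grown at 37 °C for at least 48 hr. Viability was read as ATP luminescence.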
On the % scale 0 is the no-effect control and ±100 the full control effect; potency means the concentration at half of the fitted maximal effect; tags describe the fitted curve by direction and shape.

| SMILES | Potency | activity change, negative = growth inhibition |
| --- | --- | --- |
| O=C(c1ccco1)N1c2ccccc2Sc2ccccc21 | inconclusive [inhibitor, single point] | – |
| O=C(C1CCCN(S(=O)(=O)c2ccc(Br)cc2)C1)N1CCOCC1 (stereo not drawn) | inconclusive [inhibitor, partial curve] | – |
| COC(=O)C1=C2c3[nH]c4ccccc4c3CCN2C(=O)CC1 | inactive | – |
| COC(=O)c1sc(N)c(C(=O)OC)c1CSc1nc2sc3c(c2c(=O)n1C)CCC3 | inconclusive [inhibitor, single point] | – |
| CCn1c(CCNC(=O)c2ccc(C)cc2)nnc1SCc1ccc(Cl)c(Cl)c1 | active: 20.6 µM | – |
| Cc1ccc(-n2cc(CN3CCNC(=O)CC3)c(-c3ccc(F)cc3)n2)cc1 | inconclusive [inhibitor, single point] | – |
| OCCN1CCN(c2ncnc3c2c(-c2ccccc2)cn3-c2ccc(F)cc2)CC1 | inconclusive [inhibitor, single point] | – |
| Cc1ccccc1CCNC(=O)C1CCN(c2nc3ccccc3nc2C(F)(F)F)CC1 | inconclusive [inhibitor, full curve] | – |
| COc1ccc(Br)cc1/C=N/N1C(=O)CSC1=S | inconclusive [inhibitor, single point] | – |
| O=C(CCc1ccccc1)Nc1nnc(-c2ccc3c(c2)OCCO3)o1 | inactive | – |
| CN(C)c1ccc(/C=C/c2c(Br)cnc3ccccc23)cc1 | inconclusive [inhibitor, single point] | – |
| Cc1c(Cl)cccc1NC(=O)CSc1nccn1C | inactive | – |
| Cc1ccc(-n2c(SCC(=O)NCc3ccccc3)nc3c([nH]c4ccccc43)c2=O)cc1 | inconclusive [inhibitor, single point] | – |
| COc1cc(CN(C(=O)c2cccc(C)c2)c2ccccn2)cc(OC)c1OC | active: 13 µM | – |
| CC1CC(C)CN(C2CCCCC2NS(=O)(=O)c2ccc(Cl)cc2)C1 (stereo not drawn) | inconclusive [inhibitor, single point] | – |
| CC(C)(C)OC(=O)N1CCC(C(=O)Nc2cccc(C(=O)NCCc3ccccc3)c2)CC1 | inconclusive [inhibitor, single point] | – |
| COc1ccc2cc(C#N)c(SCC(=O)Nc3nonc3C)nc2c1 | inactive | – |
| CCn1c(SCC(=O)Nc2oc(-c3ccccc3)c(-c3ccccc3)c2C#N)nnc1-c1ccncc1 | active: 13 µM | – |
| CCOc1ccc(C(=O)NCCn2cc(SCC(=O)Nc3ccccc3)c3ccccc32)cc1 | inconclusive [inhibitor, single point] | – |
| COC(=O)c1cc(NC(=O)c2sc3ncn(Cc4cccc(F)c4)c(=O)c3c2C)cc(C(=O)OC)c1 | inactive | – |
| COc1ccc(OC)c(S(=O)(=O)N2CCC(C(=O)N(C)Cc3ccccc3)CC2)c1 | inconclusive [inhibitor, single point] | – |
| Cc1ccccc1-n1nc(C)c2cc(C(=O)NC3CC3)sc21 | inconclusive [inhibitor, single point] | – |

| SMILES | Potency | activity change, negative = growth inhibition |
| --- | --- | --- |
| O=C(COC(=O)c1cnc(Cl)c(Cl)c1)NCc1cccs1 | inconclusive [inhibitor, single point] | – |
| COc1ccccc1N1CCC(N2CCN(CC(C)(C)C)C(CCO)C2)CC1 (stereo not drawn) | inactive | – |
| CCOC(=O)c1c(O)c(O)c(C(=O)OCC)n1-c1ccccc1 | inconclusive [inhibitor, partial curve, poor fit] | – |
| CCOC(=O)c1nn(-c2ccc(C)cc2)cc1C(=O)c1ccccc1 | inactive | – |
| CC(=O)c1ccc(NC(=O)Nc2ccc([N+](=O)[O-])cc2)cc1 | inactive | – |
| O=C(NCc1cccs1)c1cccc(Nc2nc3ccc(Br)cc3[nH]2)c1 | inconclusive [inhibitor, single point] | – |
| CC(=O)Oc1ccc(/C=N/NC(=O)CCSc2ccccc2)cc1 | inconclusive [inhibitor, partial curve] | – |
| CCOc1ccc(N2CC(C(=O)OCC(=O)c3ccc(OC)cc3)CC2=O)cc1 (stereo not drawn) | inconclusive [inhibitor, single point] | – |
| COC(=O)c1ccc(N2CCN(CC(=O)c3ccc(-c4ccccc4)cc3)CC2)c([N+](=O)[O-])c1 | inconclusive [inhibitor, single point] | – |
| COc1ccccc1NC(=O)CCS(=O)(=O)c1cc2c3c(c1)CCN3C(=O)CC2 | – | inconclusive: -30.5% [inhibitor] |
| CSC1=NCCN1C(=O)c1ccc(S(=O)(=O)N2CCCCC2)cc1 | inconclusive [inhibitor, full curve, poor fit] | – |
| Cc1ccc2c(c1)[C@@H]1[C@H](CO2)[C@H](c2ccccc2)[C@]2(C)C(=O)N[C@H](C)C(=O)N12 | inconclusive [inhibitor, single point] | – |
| CC(=O)Nc1ccc(Nc2cc(C)nc(Nc3ccc(NC(C)=O)cc3)n2)cc1 | inconclusive [inhibitor, single point] | – |
| COc1ccc(C2Nc3ccccc3C(=O)N2Cc2ccco2)cc1COc1ccccc1F (stereo not drawn) | inconclusive [inhibitor, single point] | – |
| COc1cccc(C(O)c2ncc(-c3ccccc3Cl)[nH]2)c1 (stereo not drawn) | inconclusive [inhibitor, partial curve] | – |
| COc1ccccc1CNC(=O)Cn1c(=O)oc2cc(S(=O)(=O)NCc3ccccc3)ccc21 | active: 10.3 µM | – |
| CCOC(=O)Cn1nc(NC(=O)c2ccc(C(=O)OC)cc2)cc1C | inconclusive [inhibitor, single point] | – |
| COc1ccc([N+](=O)[O-])cc1NC(=O)c1ccc(N(Cc2ccccc2Cl)S(C)(=O)=O)cc1 | inactive | – |
| Cc1ccccc1CN1CCc2c(OCC(=O)N3CCCc4ccccc43)cccc2C1=O | active: 18.4 µM | – |
| CCOc1cc(C(=O)N2CCN(c3ccc(C(C)=O)cc3)CC2)cc(OCC)c1OCC | inconclusive [inhibitor, single point] | – |
| COc1ccccc1Nc1nc(-c2ccccc2Cl)c2cc(Br)ccc2n1 | active: 3.66 µM | – |
